# Laboratory results: PubChem BioAssay AID1745853 (National Center for Advancing Translational Sciences (NCATS), 2022)
# The other results are listed elsewhere or left out. The main result of the screen is listed elsewhere. These columns were measured beside it and carry no call.
# Assays:
# Experiment in all cases: Primary Screen for Target Class Profiling of Small Molecule Inhibitors of Methyltransferases
# [1] = molecular target: Glycine N-methyltransferase (Homo sapiens) (UniProt Q14749); conditions: purified enzyme, MTase-Glo SAH luminescence; measured here: GNMT inhibition; at 40 µM; stronger effect = lower value
# Outline: (§1)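 Each enzyme was assayed with SAM and its substrate. SAH formation detected by MTase-Glo luminescence; single-point 40 uM screen[…].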
# [2] = molecular target: Guanidinoacetate N-methyltransferase (Homo sapiens) (UniProt Q14353); conditions: purified enzyme, MTase-Glo SAH luminescence; measured here: GAMT inhibition; at 40 µM; stronger effect = lower value
# Outline: as §1
# [3] = molecular target: Histamine N-methyltransferase (Homo sapiens) (UniProt P50135); conditions: purified enzyme, MTase-Glo SAH luminescence; measured here: HNMT inhibition; at 40 µM; stronger effect = lower value
# Outline: as §1
# [4] = molecular target: Nicotinamide N-methyltransferase (Homo sapiens) (UniProt P40261); conditions: purified enzyme, MTase-Glo SAH luminescence; measured here: NNMT inhibition; at 40 µM; stronger effect = lower value
# Outline: as §1
# [5] = molecular target: Phenylethanolamine N-methyltransferase (Homo sapiens) (UniProt P11086); conditions: purified enzyme, MTase-Glo SAH luminescence; measured here: PNMT inhibition; at 40 µM; stronger effect = lower value
# Outline: as §1
# On the % scale 0 is the no-effect control and ±100 the full control effect.
SMILES,"activity change, negative = inhibition [1] [%]","activity change, negative = inhibition [2] [%]","activity change, negative = inhibition [3] [%]","activity change, negative = inhibition [4] [%]","activity change, negative = inhibition [5] [%]"
CCOC(=O)c1cc2n(n1)CC(C)(C(=O)NC1CCCCCC1)N(Cc1ccccc1OCC)C2=O (stereo not drawn),-0.958,0.412,-0.283,-7.49,2.79
Nc1nc(NCc2ccc(N3CCCC3=O)cc2)cc(C2CC(O)C2)n1 (stereo not drawn),-6.16,-9.17,-19.8,-15.8,7.56
CCOC(=O)c1cnn(-c2ccccc2)c1NC(=O)c1cc2nc(-c3ccco3)cc(C(F)(F)Cl)n2n1,-4.37,-19.2,4.43,-36.6,-6.08
NC(=O)N1c2ccccc2C=Cc2ccccc21,-2.54,2.37,-1.16,-8.4,4.44
COc1cccc(NC(=O)CCc2nnc3n(CCCOC(C)C)c(=O)c4ccccc4n23)c1,-1.36,0,5.54,11.1,1.16
O[C@H]1CC[C@@H](Cc2cc(CN3CCN(c4ccccc4)CC3)on2)O[C@@H]1CNCc1ccccc1,-3.74,-4.62,-0.705,-2.15,-3.24
CC(C)Cn1c(=O)c2cc(F)ccc2n2c(SCc3ccccc3F)nnc12,1.76,2.3,2.75,0.305,-2.9
C=CC(=O)N1CCN(C(=O)CNc2cc(I)c(Cl)cc2O)CC1,-5.87,-12.8,-0.499,-24.7,-36.7
CN[C@@H](C)c1nc(C2CCOCC2)nn1CC1CCCCC1,-2.7,-2.31,-0.292,-6.23,-0.088
Cc1cccc(N(C)C(=O)Cn2c(=O)oc3cc(S(=O)(=O)N4CCCCC4)ccc32)c1,-1.19,1.75,0.04,4.34,-4.2
COCC(=O)N(C1CCOCC1)C1CCN(C(=O)c2cccnc2C)CC1,0.751,0.203,0.061,4.33,2.74
CNc1nc(Nc2cnn([C@H]3CCN(C4COC4)C[C@@H]3F)c2Cl)ncc1C(F)(F)F,3.07,3.91,12.8,-17.1,2.71
CSc1ccc(CN2C(=O)c3cc4ccccc4n3CC2(C)C(=O)NCc2ccccc2)cc1 (stereo not drawn),7.96,0,10.2,10.3,2.75
O=C1C=CC(O)(/C=C/C(=O)OC[C@H]2O[C@@H](Oc3ccc(O)cc3)[C@H](O)[C@@H](O)[C@@H]2O)C=C1,-6.71,-9.2,2.83,-15.3,-3.41
CCNC(=O)[C@@H]1C[C@H](NC(=O)c2ccco2)CN1C(=O)Cn1nccc1C,-0.086,1.56,0.259,4.08,6.01
COc1cc(NC(=O)Cn2nc3n(CC(C)C)c(=O)c4ccccc4n3c2=O)cc(OC)c1,-0.201,0,4.64,-1.48,-1.86
COC(=O)CNC(=O)N1CCCC1c1nc(CCOCC2CC2)no1 (stereo not drawn),-1.92,-3.41,-0.743,-5,-1.43
COC1CC(OC2CCC3(C)C(=CCC4C3CCC3(C)C(C(C)O)CCC43O)C2)OC(C)C1OC1OC(C)C(OC2OC(COC3OC(COC4OC(CO)C(O)C(O)C4O)C(O)C(O)C3O)C(O)C(O)C2O)C(OC)C1O (stereo not drawn),4.14,6.27,9.03,-5.12,6.71
Cc1cc(C)c(NC(=O)c2ncn3c2C(=O)N(C2CC2)C(C)(C(=O)NCc2ccc(F)cc2)C3)c(C)c1 (stereo not drawn),4.5,0.421,10.4,6.05,9.67
Clc1ccc(C(Cn2ccnc2)OCc2c(Cl)cccc2Cl)c(Cl)c1 (stereo not drawn),-4.18,-1.18,7.51,-66.2,-2.76
COc1ccc(C2CC(=O)c3cc(-c4nc(-c5cccc([N+](=O)[O-])c5)cs4)c(=O)n(-c4ccccc4N)c3C2)cc1 (stereo not drawn),,-52.5,,-55.1,-15.2
Cc1ncsc1CN1CCC2(CC1)CC(CC(=O)NCc1ccncc1)CCO2 (stereo not drawn),0.249,-2.84,0.068,-9.47,-0.698
O=C(CN1C(=O)C2(CCCC2)NCC1c1cc(F)cc(F)c1)Nc1ccc2c(c1)CC1(C2)C(=O)Nc2ncccc21 (stereo not drawn),0.362,6.43,8.66,-17.7,1
O=C(Cn1c(=O)oc2cc(S(=O)(=O)NCc3ccccc3)ccc21)NCCCc1ccccc1,13.9,0.862,11.7,3.59,7.94
O=C(c1cnc2ccccn12)N1CCc2c(nc(-c3ccccc3)[nH]c2=O)C1,-2.15,-3.24,0.234,0.871,-0.585
O=C(CCc1nnc2n(Cc3ccc(Cl)cc3)c(=O)c3ccccc3n12)NCCc1c[nH]c2ccccc12,-0.146,2.31,-13.5,9.42,1.18
Oc1ccc(CC2NCCc3cc(O)c(O)cc32)cc1 (stereo not drawn),-4.1,-7.95,-18.4,-18.7,-2.47
CCn1cc(C2=NOC(C(=O)Nc3c(C)n(C)n(-c4ccccc4)c3=O)C2)c(C)n1 (stereo not drawn),5.8,3.09,8.33,-4.99,6.25
COc1ccc(NC(=O)CCc2nnc3n(Cc4ccccc4)c(=O)c4ccccc4n23)cc1OC,-4.97,4.9,2.91,11.9,0.199
